Reference: the supplement of paper PMC9334596
Values joined by “and” are separate entries in the source; they are usually repeats but may differ in a detail not shown here. Equal entries are not always repeated. In all, about 5,300 compounds were measured (“PER2::LUC luminescence relative to vehicle control”: median about 0.96, highest 2% from about 1.3 on). This is one part of the list.

Tested on: mPer2Luc MEF
Assay: PER2::LUC luminescence relative to vehicle control (fold of vehicle); higher = higher PER2::LUC reporter signal
Conditions: 10 µM
Summary of the method: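 In 384-well plates, ~3000 mPer2Luc reporter mouse embryonic fibroblasts per well were cultured in DMEM with 10% FBS at 37 °C and 5% CO2 for 48 h before compounds from commercial libraries were added at 10 μM. ONE-Glo luciferase readings were taken 24 h and 30 h after treatment. Each value is PER2::LUC luminescence given as fold of vehicle control.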

Row | Structure (SMILES) | PER2::LUC luminescence (time after treatment 24 h) | PER2::LUC luminescence (time after treatment 30 h)
1 | C[n+]1cccc(C(=O)[O-])c1 | 1.01 and 0.913 | 1.04 and 0.928
2 | COc1cc(C)c(/C=C/C(C)=C/C=C/C(C)=C/C(=O)O)c(C)c1C | 1.82 | 2.04
3 | CC(C)OC(=O)CCC/C=C\C[C@@H]1[C@@H](CC[C@@H](O)CCc2ccccc2)[C@H](O)C[C@@H]1O | 0.885 | 0.933
4 | CC(C)(F)C[C@H](N[C@@H](c1ccc(-c2ccc(S(C)(=O)=O)cc2)cc1)C(F)(F)F)C(=O)NC1(C#N)CC1 | 0.945 | 0.902
5 | O=C(Nc1ccccc1)C12C=C1C(=NO)c1ccccc1O2 (stereo not given) | 1.08 | 0.974
6 | CN(C)CCc1c[nH]c2ccc(C[C@H]3COC(=O)N3)cc12 | 0.968 | 1.16
7 | O=C1c2cccc(O)c2C(=O)c2c(O)cc(CO)cc21 | 1.01 | 1.02
8 | CN(C)CCC=C1c2ccccc2C=Cc2ccccc21 | 0.35 | 0.5
9 | CC(=O)O[C@H]1CC[C@]2(C)[C@H]3CC=C4[C@@H]5CC(C)(C)CC[C@]5(C)CC[C@@]4(C)[C@]3(C)CC[C@H]2C1(C)C | 1.07 | 0.99
10 | COc1cc(/C=C/C(=O)O)ccc1O | 1.04 | 1.06
11 | C[N+]1(C)CCC(=C(c2ccccc2)c2ccccc2)CC1 | 1.05 and 1.08 | 0.967 and 0.929
12 | NS(=O)(=O)c1cc2c(cc1Cl)NCNS2(=O)=O | 1 | 0.871
13 | O=C(NC1CCOCC1)c1ccc(-c2cc(-c3c[nH]nc3-c3ccccn3)ccn2)cc1 | 0.936 | 0.865
14 | O=C1C(=O)N(Cc2ccc(Cl)c(Cl)c2)c2ccccc21 | 0.666 | 0.802
15 | COc1ccc(C(=O)N2CCN(C(=O)/C=C/c3ccc(Br)cc3)CC2)cc1 | 1.06 | 0.954
16 | CNNCc1ccc(C(=O)NC(C)C)cc1 | 0.827 | 0.897
17 | Nc1ccc(C(=O)Oc2ccccc2)c(O)c1 | 0.958 | 1.54
18 | O=c1[nH]c(=O)n([C@H]2C[C@H](O)[C@@H](CO)O2)cc1F | 1.1 | 0.725
19 | NCCCCN(Cc1nc2ccccc2[nH]1)[C@H]1CCCc2cccnc21 | 0.946 | 0.739
20 | C/C(=N\NC(=S)N1CCC1)c1ccccn1 | 0.15 | 0.137
21 | CC1=C(/C=C/C(C)=C/C=C/C(C)=C/C(=O)Nc2ccc(O)cc2)C(C)(C)CCC1 | 0.452 and 1.09 | 0.603 and 1.06
22 | NC(=O)c1ncn([C@@H]2O[C@H](CO)[C@@H](O)[C@H]2O)c1N | 1.32 and 0.733 | 1.18 and 0.988
23 | COc1cc2c(cc1OC)[C@@H](c1ccccc1)CN(C)CC2 | 1.1 | 1
24 | CC1=CC(=O)CC(C)(C)C1(O)/C=C/C(C)=C\C(=O)O (mixture of isomers) | 0.994 | 0.957
25 | Nc1ncnc2c1ncn2[C@@H]1O[C@H](COP(=O)(O)O)[C@@H](O)[C@H]1O | 1.22 and 1.13 | 1.14 and 1.05
26 | CCC(=O)O[C@H]1[C@H](O[C@@H]2[C@@H](C)[C@H](O[C@H]3C[C@@](C)(OC)[C@@H](O)[C@H](C)O3)[C@@H](C)C(=O)O[C@H](CC)[C@@](C)(O)[C@H](O)[C@@H](C)C(=O)[C@H](C)C[C@@]2(C)O)O[C@H](C)C[C@@H]1N(C)C | 0.918 | 0.918
27 | CC(=O)Oc1cc(C(C)C)c(OCCN(C)C)cc1C | 0.402 | 1

Row | Structure (SMILES) | PER2::LUC luminescence (time after treatment 24 h) | PER2::LUC luminescence (time after treatment 30 h)
28 | O=C(O)c1cc(O)c2c(c1)[C@H]([C@H]1c3cc(C(=O)O)cc(O)c3C(=O)c3c(O[C@@H]4O[C@H](CO)[C@@H](O)[C@H](O)[C@H]4O)cccc31)c1cccc(O[C@@H]3O[C@H](CO)[C@@H](O)[C@H](O)[C@H]3O)c1C2=O | 0.767 | 1.03
29 | C[C@@H]1C(=O)O[C@H]2C[C@@]34[C@H]5C[C@@H](C(C)(C)C)[C@]36[C@@H](OC(=O)[C@@H]6O)O[C@@]4(C(=O)O5)[C@]21O | 1.02 | 0.98
30 | CC(c1cc2ccccc2s1)N(O)C(N)=O (stereo not given) | 0.877 | 1.31
31 | COc1cc(O)c(C(C)=O)c(OC)c1 | 0.941 | 0.952
32 | Nc1ccn(C[C@@H](CO)OCP(=O)(O)O)c(=O)n1 | 1.07 | 1.02
33 | O=C1c2ccccc2C(=O)c2c(NCCc3ccc(O)cc3)ccc(NCCc3ccc(O)cc3)c21 | 0.998 | 0.835
34 | COc1ccc(Nc2nccc(NCCO)n2)cc1 | 1.05 | 0.976
35 | CN(C)CCCOc1nn(Cc2ccccc2)c2ccccc12 | 0.564 | 0.631
36 | O=C1c2c(O)cc(O)cc2OC(c2ccc(O)c(O)c2)C1O (stereo not given) | 0.873 | 0.963
37 | O=C1c2c(O)cc(O)cc2O[C@H](c2ccc(O)c(O)c2)[C@H]1O | 0.967 and 0.966 | 0.947 and 0.931
38 | OC[C@@H](O)[C@@H](O)[C@H](O)[C@@H](O)CO | 1.05 and 0.934 | 1.02 and 0.989
39 | S=C=Nc1ccc(N=C=S)cc1 | 1.12 and 0.633 | 0.975 and 0.89
40 | O=c1c(O)c(-c2ccccc2O)oc2cc(O)cc(O)c12 | 0.983 | 0.996
41 | Cn1cc(C(=O)OCC2CCN(CCNS(C)(=O)=O)CC2)c2ccccc21 | 1.01 | 0.969
42 | C#C[C@]1(O)CC[C@H]2[C@@H]3[C@H](C)CC4=C(CCC(=O)C4)[C@H]3CC[C@@]21C | 0.925 | 0.974
43 | CC(C)(C)c1cc(C(=O)C(C#N)=NNc2cccc(Cl)c2)no1 | 1.1 | 1.11
44 | CC(=O)OCC(=O)[C@@]1(O)CC[C@H]2[C@@H]3CCC4=CC(=O)C=C[C@]4(C)[C@@]3(F)[C@@H](O)C[C@@]21C | 0.602 | 0.941
45 | COc1cc(C(=O)N2CCOCC2)cc(OC)c1OC | 0.835 | 0.821
46 | CC(=O)OCC(=O)[C@@]1(O)CC[C@H]2[C@@H]3CCC4=CC(=O)CC[C@]4(C)[C@H]3C(=O)C[C@@]21C | 1.2 and 1.11 | 0.827 and 1.07
47 | CNCC[C@H](Oc1ccc(C(F)(F)F)cc1)c1ccccc1 | 0.717 | 0.709
48 | CCCCC(=O)O[C@]1(C(=O)CO)[C@@H](C)C[C@H]2[C@@H]3CCC4=CC(=O)C=C[C@]4(C)[C@@]3(F)[C@@H](O)C[C@@]21C | 0.684 and 0.795 | 1.37 and 1.15
49 | COc1cc2nc(N3CCN(C(=O)C4CCCO4)CC3)nc(N)c2cc1OC (stereo not given) | 0.991 and 0.919 | 0.924 and 0.931
50 | Nc1ncnc2c1c(-c1ccc(Oc3ccccc3)cc1)nn2C1CCCC1 | 0.655 | 0.662
51 | Oc1ccc(O)cc1 | 1.05 | 1.29
52 | CN1CCN(c2cccc(Nc3nc4c(-c5ccc(S(C)(=O)=O)cc5)cccn4n3)c2)CC1 | 0.464 | 0.598
53 | C[C@H]1C[C@H]2[C@@H]3CCC4=CC(=O)C=C[C@]4(C)[C@@]3(Cl)[C@@H](O)C[C@]2(C)[C@@]1(O)C(=O)CO | 0.657 | 0.815
54 | CC1=C2C(O)C(=O)OC3CC4C(C)(C)C(=O)C=C[C@]4(C)C(CC1)[C@]23C (stereo not given in full) | 0.961 | 0.929

Row | Structure (SMILES) | PER2::LUC luminescence (time after treatment 24 h) | PER2::LUC luminescence (time after treatment 30 h)
55 | Cc1nc(N=Nc2ccc(C(=O)O)cc2)c(COP(=O)(O)O)c(C=O)c1O | 0.86 | 0.966
56 | CN[C@@H](C)C(=O)N[C@H](C(=O)N1CCC[C@H]1C(=O)Nc1snnc1-c1ccccc1)C1CCCCC1 | 1 | 1.04
57 | CC1CCC(NC(=O)N(CCCl)N=O)CC1 (stereo not given) | 1.27 | 1.02
58 | CC(=O)c1ccc2c(c1)C1C=CCC1C(c1cc3c(cc1Br)OCO3)N2 (stereo not given) | 1.02 | 0.942
59 | Nc1ccc(S(=O)(=O)Nc2ccc(Cl)nn2)cc1 | 1.05 and 1.04 | 1.03 and 0.996
60 | CNC(=O)c1nn(C)c2c1C(C)(C)Cc1cnc(Nc3ccc(N4CCN(C)CC4)cc3)nc1-2 | 0.62 | 0.605
61 | CC(C)(O)CC[C@@H](O)[C@](C)(O)[C@H]1CC[C@@]2(O)C3=CC(=O)[C@@H]4C[C@@H](O)[C@@H](O)C[C@]4(C)[C@H]3CC[C@]12C | 1.03 and 0.858 | 0.946 and 1.03
62 | Cc1cc2nc3ccc(N(C)C)cc3[s+]c2cc1N | 0.712 | 0.54
63 | CC1CCN=C(N)S1 (racemic) | 1.03 | 0.959
64 | COC1=C(O)C(=O)c2c(cc3oc(C(C)=O)c(O)c3c2O)C1=O | 1.03 | 1.03
65 | Cc1cc2c(cc1CC(=O)c1sccc1S(=O)(=O)Nc1onc(C)c1Cl)OCO2 | 1.02 and 0.92 | 0.932 and 0.885
66 | O=C(O)Cc1ccc(-c2ccccc2)cc1 | 1.01 and 0.936 | 1.01 and 0.946
67 | O=C(NC[C@H]1CN(c2ccc(N3CCOCC3=O)cc2)C(=O)O1)c1ccc(Cl)s1 | 1.04 | 1.04
68 | C[C@@H]1C[C@H]2[C@@H]3C[C@H](F)C4=CC(=O)C=C[C@]4(C)[C@@]3(F)[C@@H](O)C[C@]2(C)[C@@]1(O)C(=O)CO | 0.741 | 1.1
69 | CC[C@H](/C=C/[C@@H](C)[C@H]1CC[C@H]2[C@@H]3CC=C4C[C@@H](O)CC[C@]4(C)[C@H]3CC[C@]12C)C(C)C | 1.09 | 1.02
70 | COC(=O)C(O)CCn1cnc2c(N)ncnc21 (stereo not given) | 0.95 | 0.999
71 | Fc1ccc2nc(CCC#Cc3ccccn3)cn2c1 | 1.02 | 1.11
72 | O=C(O)c1cn(-c2ccc(F)cc2)c2cc(N3CCNCC3)c(F)cc2c1=O | 1.09 | 0.989
73 | c1ccc(NCc2ccc(CNc3ccccn3)cc2)nc1 | 1.02 and 0.964 | 1.07 and 0.953
74 | CC(=O)OCC(=O)[C@@]1(O)[C@@H](C)C[C@H]2[C@@H]3CCC4=CC(=O)C=C[C@]4(C)[C@@]3(F)[C@@H](O)C[C@@]21C | 0.552 | 0.966
75 | COC(=O)c1ccc2c(c1)nc(NC(=O)c1ccccc1)n2CCCc1ccccc1 | 1.09 | 0.933
76 | Cc1nnc(C(=O)NC(C)(C)c2nc(C(=O)NCc3ccc(F)cc3)c(O)c(=O)n2C)o1 | 1.02 and 1.12 | 0.959 and 1.11
77 | CO[C@H]1C[C@H](O[C@@H]2/C(C)=C/C[C@@H]3C[C@@H](C[C@]4(CC[C@H](C)[C@H](C5CCCCC5)O4)O3)OC(=O)[C@H]3C=C(C)/C(=N\O)[C@H]4OCC(=C/C=C/[C@@H]2C)[C@@]34O)O[C@@H](C)[C@@H]1O | 0.989 | 0.929
78 | CC(=O)Oc1ccc2c(c1OC(C)=O)OCC1(O)Cc3c(cc(OC(C)=O)c(OC(C)=O)c3OC(C)=O)C21 (stereo not given) | 0.911 | 0.792
79 | CC(C)CC(N)=O | 1.01 | 0.845
80 | NC(=NC1C2CC3CC(C2)CC1C3)Nc1ccc(I)cc1 (stereo not given) | 1.02 | 0.987
